Results reported in the supplement of paper PMC4967469.
IC50 is the fitted dose that halves viability relative to control wells, and lower means more sensitive; a limit (>, <) means that the fit lies beyond the doses tested. AUC sums up the same curve from the lowest dose to the 256-fold higher top dose; it is 1 without any effect and falls as sensitivity rises. For part of these data: An inferred top dose was calculated from the reported fits. For part of these data: An entry number marks a drug with two screens in the source, which often give different values.

Key:
Experiment in all cases: Viability of human cancer cell lines after 72 h of drug (GDSC screen)
[1] = compound: CN1CCN(c2ccc([N+](=O)[O-])c3no[n+]([O-])c23)CC1 [NSC-207895]; conditions: top dose 20 µM; top dose inferred
Protocol: (§1)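 Human cancer cell lines in 384-well plates, medium with 10% serum, drug for 72 h over a 256-fold dose range (nine 2-fold or five 4-fold steps up to the top dose). Adherent lines were fixed and stained with the nucleic acid dye Syto60, suspension lines read with resazurin; signal relative to control wells, capped at 0 and 100%. One two-parameter sigmoid per drug and line, fitted in a mixed model over all curves with the slope shared within a line.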

[2] = compound: COCC[n+]1c2c(n(Cc3cnccn3)c1C)C(=O)c1ccccc1C2=O [YM155]; conditions: top dose 5.12 µM
Protocol: as §1

[3] = compound: C[C@]1(O)C[C@@H](c2nc(-c3ccc4ccc(-c5ccccc5)nc4c3)c3c(N)nccn32)C1 [OSI-906]; conditions: top dose 2.56 µM; top dose inferred
Protocol: as §1

[4] = compound: Cc1sc2c(c1C)C(c1ccc(Cl)cc1)=N[C@@H](CC(=O)OC(C)(C)C)c1nnc(C)n1-2 [JQ1]
Protocol: as §1

[5] = compound: O=C(/C=C/c1cccc(S(=O)(=O)Nc2ccccc2)c1)NO [Belinostat]; conditions: top dose 20 µM; top dose inferred
Protocol: as §1

[6] = compound: Cc1ccc(C(=O)N(CCCN)[C@@H](c2nc3cc(Cl)ccc3c(=O)n2Cc2ccccc2)C(C)C)cc1 [SB-715992]; conditions: top dose 0.128 µM; top dose inferred
Protocol: as §1

[7] = compound: COC(=O)[C@H](CCSC)NC(=O)c1ccc(NC[C@@H](N)CS)cc1-c1ccccc1 [FTI-277]; conditions: top dose 1.024 µM; top dose inferred
Protocol: as §1

[8] = compound: c1ccc2c(CCNc3ccc(Nc4ccncc4)cc3)c[nH]c2c1 [JNJ-26854165]; conditions: top dose 10 µM
Protocol: as §1

[9] = compound: CC1(C)CNc2cc(NC(=O)c3cccnc3NCc3ccncc3)ccc21 [AMG-706]; conditions: top dose 2 µM; top dose inferred
Protocol: as §1

[10] = compound: CCOc1nc(NC(=O)Cc2cc(OC)ccc2OC)cc(N)c1C#N [JNK Inhibitor VIII]; conditions: top dose 10 µM; top dose inferred
Protocol: as §1

[11] = top dose 1 µM, screen: GDSC drug entry 1218, top dose inferred
[12] = top dose 2.56 µM, screen: GDSC drug entry 163

Cell Line	AUC [1]	IC50 [1]	AUC [2]	IC50 [2]	AUC [3]	IC50 [3]	AUC [4, 11]	IC50 [4, 11]	AUC [4, 12]	IC50 [4, 12]	AUC [5]	IC50 [5]	AUC [6]	IC50 [6]	AUC [7]	IC50 [7]	AUC [8]	IC50 [8]	AUC [9]	IC50 [9]	AUC [10]	IC50 [10]
NCI-H2170 (lung squamous cell carcinoma, adherent)	0.984	> 20 µM	0.331	0.105 µM	0.954	> 2.56 µM	0.964	> 1 µM	0.892	> 2.56 µM	0.673	3.9 µM	0.952	> 0.128 µM	0.983	> 1.02 µM	0.929	> 10 µM	–	–	–	–
OCI-LY7 (B-cell lymphoma, suspension)	–	–	–	–	–	–	–	–	–	–	–	–	–	–	–	–	0.895	6.1 µM	0.994	> 2 µM	0.981	> 10 µM
PCI-38 (head and neck, adherent)	0.937	> 20 µM	0.081	< 0.02 µM	0.986	> 2.56 µM	0.983	> 1 µM	0.867	2.35 µM	0.495	1.21 µM	0.846	0.0938 µM	0.975	> 1.02 µM	0.819	5.75 µM	–	–	–	–
PL18 (pancreas, adherent)	0.987	> 20 µM	0.032	< 0.02 µM	0.957	> 2.56 µM	0.986	> 1 µM	0.643	0.397 µM	0.551	1.73 µM	0.98	> 0.128 µM	0.966	> 1.02 µM	0.868	8.99 µM	–	–	–	–
RD (rhabdomyosarcoma, adherent)	0.635	3.07 µM	0.048	< 0.02 µM	0.745	0.87 µM	0.975	> 1 µM	0.69	0.577 µM	0.442	0.857 µM	0.881	> 0.128 µM	0.985	> 1.02 µM	0.951	> 10 µM	–	–	–	–
RT-112 (bladder, adherent)	0.828	13.6 µM	0.083	< 0.02 µM	0.905	> 2.56 µM	0.983	> 1 µM	0.83	1.78 µM	0.402	0.658 µM	0.697	0.0299 µM	0.964	> 1.02 µM	0.821	6.39 µM	–	–	–	–
SCC-4 (head and neck, adherent)	0.936	> 20 µM	0.073	< 0.02 µM	0.912	> 2.56 µM	0.982	> 1 µM	0.632	0.398 µM	0.501	1.26 µM	0.961	> 0.128 µM	0.967	> 1.02 µM	0.885	> 10 µM	–	–	–	–
SN12C (kidney, adherent)	0.983	> 20 µM	0.182	0.0304 µM	0.949	> 2.56 µM	0.949	> 1 µM	0.857	2.51 µM	0.595	2.35 µM	0.949	> 0.128 µM	0.954	> 1.02 µM	0.914	> 10 µM	–	–	–	–
SW156 (kidney, adherent)	0.982	> 20 µM	0.506	0.332 µM	0.953	> 2.56 µM	0.984	> 1 µM	0.89	> 2.56 µM	0.765	8.09 µM	0.959	> 0.128 µM	0.986	> 1.02 µM	0.724	2.93 µM	–	–	–	–
SW837 (large intestine, adherent)	0.887	> 20 µM	0.194	0.0278 µM	0.779	1.41 µM	0.978	> 1 µM	0.853	> 2.56 µM	0.305	0.295 µM	0.815	0.101 µM	0.974	> 1.02 µM	0.958	> 10 µM	–	–	–	–
SW1463 (large intestine, adherent)	0.977	> 20 µM	0.966	> 5.12 µM	0.889	> 2.56 µM	0.97	> 1 µM	0.819	> 2.56 µM	0.697	6.73 µM	0.893	> 0.128 µM	0.971	> 1.02 µM	0.94	> 10 µM	–	–	–	–
T-24 (bladder, adherent)	0.978	> 20 µM	0.196	0.0424 µM	0.975	> 2.56 µM	0.987	> 1 µM	0.967	> 2.56 µM	0.612	2.5 µM	0.928	> 0.128 µM	0.939	> 1.02 µM	0.911	> 10 µM	–	–	–	–
U251 (glioma, adherent)	0.973	> 20 µM	0.023	< 0.02 µM	0.984	> 2.56 µM	0.927	> 1 µM	0.793	1.11 µM	0.242	0.235 µM	0.678	0.0244 µM	0.972	> 1.02 µM	0.872	8.8 µM	–	–	–	–
